From the supplement of paper PMC10126150
Values marked as one replicate rest on one cluster of the flow cell; about a third of the high ones do not repeat.

Test system: ATP
Assay: switch fluorescence ratio, 500 uM ATP over buffer (Cy3 cluster intensity, sum of 5 cycles each) (fold (ratio)); higher = stronger signal-on switching upon ATP binding; sequences stand for … in TCGTCGGCAGCGTCAGATGTGTATAAGAGACAGTTTTTTTTTTTTTTTTTTTTTTTTT…TC
Details: aptamer strand: ATP DNA aptamer (quencher-CACCTGGGGGAGTATTGCGGAGGAAGG + anchor), 100 nM annealed; ATP concentration: 500 uM; one replicate
Method in brief: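 Between each of five buffer/ATP cycles, the flow-cell was stripped with NaOH and re-annealed. Each cycle imaged Cy3-labelled switching-strand clusters, annealed to 100 nM quencher-labelled ATP aptamer on a modified Illumina MiSeq flow-cell, first in selection buffer and then after 15 min with 500 uM ATP at 22 °C. The fluorescence ratio is summed target-cycle over summed buffer-cycle Cy3 intensity per cluster, averaged per switch-domain sequence, with clusters outside 100-1000 RFU excluded.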
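Also: ATP exposure 15 min at 22 °C before imaging.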

Sequence	switch fluorescence ratio
TATGACGTT	0.987
TTCTGGACAG	0.993
TGGATAACTT	1.04
CGGCACAATC	2.93
TAACGCTCTT	0.972
GTGGCGCTGC	0.994
TACTAGATTT	1.01
ACAGTAAAGG	1.09
CGTGATATGA	1
TTACTAAGAA	1.04
CCTCTATAGA	1.33
TCCGAGTACA	1.84
GATTTACAAA	1.05
AGGTCTAGGT	0.952
GGATGAATTT	1.03
TTACCCGGTT	1.12
ATGCCACACT	1.04
TGACTGAGTT	1.02
TTCTCCAGGT	1.82
ACCTGTATGC	1.05
ATGACCTGTA	1.11
CAGTGTTTAC	1.02
GGTCAACGTC	1
AAAGCGAAAT	0.977
CATATATGGA	1.01
GGATTTGATT	1

Sequence	switch fluorescence ratio
TTCGTAATGA	1.09
CTTTGAAGCC	1.36
AGGATCAGA	1.01
GCTTTGAACT	0.968
CTAATGTACT	1.1
CCCAGGCCCC	1.21
TAATGGGATC	0.995
ACTCGGTCA	1.01
TGATCTGGAA	0.997
TAGGTTTAAG	0.998
ATGCTAGTTT	0.935
CCCGTGTTA	0.984
TTAACGAGCC	1.08
ACGGGGCGCA	1.02
CGGTCTGGCA	1
CGGTGCCGAC	1.03
TGCAGCGGCT	1.02
ATGAGGTACA	1
AATTTATCGA	1.02
CTAGCTGGTT	1.1
CGGTTAAGCC	0.95
GTGGAGGCTC	0.973
TGAGTTCAGC	1.03
CCATGGTTCC	1.02
GAGTACAAGT	1.01
GGGCCCATAT	1.02

Sequence	switch fluorescence ratio
TTCGTTCCTT	0.977
AAGGAATTTG	0.991
CTGCTGATCC	1.09
ATAAGTTCAG	1
ATAACTTCCT	1.45
CTATGGGGCA	1
CCCAGGCACA	1.37
TAACTACGG	1.17
TCAAACTTTT	0.969
CCCTGCGTGC	4.01
TCCATGGACT	1.03
CATAGGCCCG	0.931
GATCTTGGCG	0.967
GTAAGATACC	1.07
GTTGAGGGGC	0.949
CCAGGAAGTT	0.984
GGCCCGCCCA	1.23
CACTCAGCAG	2.02
ACAAGGTGCG	1.08
CCAATGTATT	1.11
ACGAGGTG	1.05
TGGACATGGA	0.998
TAGGGGCATG	0.999
ATCTCTGGGC	0.931
TGATAATAAC	1.04
CGGGCCCAGG	2.12

Sequence	switch fluorescence ratio
ATGCGGAGGT	1.02
GCGCCGTGGG	0.976
TTGCTGTTG	1.02
TTGAACGGTA	1.11
ATTCGCCTAC	2.02
TTCCAGTTGT	1.03
TAGATGTTGG	0.999
AGCTTAAATA	0.971
ATTCCGGTCC	1.06
ACGGATTCTA	0.984
GCGCGGCGCA	1.04
GTATAGTCAG	0.995
ACTGCTTAGA	0.996
ACGGTTATCT	1.02
GTTGAATGTA	0.939
CTTTTAGAAT	1.03
AAGCTCTCGA	0.954
GAACCCCTAT	1.02
AGTATAGGTT	1.02
ACCGGCTTTC	1.02
CATTTAAGGA	0.975
CGACGTAGG	0.993
ACTAATCGTC	0.991
GCGCACCATG	0.973
CTCGGTCTGC	1.05
AAGATGCGGC	1.01

Sequence	switch fluorescence ratio
ACGGAAAGC	1.18
GTGTCCTCGA	1.02
CACAGTGGGA	1.03
ATTCTGATCT	1.02
AGGCTCGCCA	0.972
ATGTATCTCG	0.944
TTTGAAGTTA	1.03
AGATTTTCTC	1.07
CGGGTGACCT	1.03
GTATATCGGT	0.979
ATGTGGACTT	1
CTCAGGGTCC	0.987
CCATTGTCC	1.19
ATAGCCAAAA	1
TGAAAGCACC	1.12
CTTACCGCCA	1.35
AGTTGGCAGA	1
ACTGAGTCTT	1.05
TAGTAAAGCC	0.958
TGTAATAACA	0.999
CTGGCCTCCA	1.06
AATTAAGGAA	0.993
ACTATTCGGG	1
AAAACCCCTG	1.05
GTGGCATGG	0.99
TCGGGTCATC	1.01

Sequence	switch fluorescence ratio
GATAGAGCAG	1.02
CATGTCGTT	1.02
GGCTCAAGTT	0.991
CAATGAGAGT	0.999
GCTCCAAGTC	1.19
AAGGTTCGTC	1.02
CGGTTTTTCC	0.995
GATTTGGGCC	1.02
ACCTCAGGCG	1.52
AGCGAAGAAG	0.992
TTCATTACAT	1.02
TAGTTTCCGT	1.04
GGGACTTCTA	1.02
ATAGAAAAGC	0.951
TAAATAATGT	1.03
CTGGACACGC	1.05
TTGGAGCCTC	1.06
AATCAAGCTC	0.978
GCCCCGAGGA	1.07
GGCCCAGCCG	0.975
TTTGTGGA	0.954
CAACACATGT	1.02
CATCGTGGCC	1
GGGCTGGCCG	0.973
TTTTACACGT	1.05
GACACAGTTT	1.08

Sequence	switch fluorescence ratio
CCAGCCCCGC	1.1
CTGGTGGGTG	0.988
GCCAGGAGGA	1.03
GAAGATAAAT	0.974
AGATAAAGGA	0.972
TTCGGAGTGA	1.4
CATGAGCACA	1.1
CATTATTCTA	0.993
GCCCAAGGCA	0.961
CATGTTGCTA	0.989
TTGACTATCC	1.06
GTGTAGTCCT	1.02
TGCGGTCGTA	0.961
AAAGTGTTAC	1.02
ACCAATCGGC	1.04
ACGTACGTAA	1.1
CGCGGGAGGT	0.976
ACACGTTATC	1.21
TACCAGGGGA	1.43
AGCGAGTGAC	1.06
AACTTGGTG	1
ACGGTTTCGG	1.03
TGCATCCTTA	0.946
TGATATCCAG	0.957
GATCTGATTG	1.01
CGCCGGCGCG	1.01

Sequence	switch fluorescence ratio
CGGCCACAGT	1.04
GTCAATGGC	1.07
TATCGAAAAC	1.03
GAACGGAAG	1.01
GCCAGGGATC	0.994
CCTTGTGGGC	1.01
ACTCATAACT	1.01
AGATCTCCA	0.969
CCTCATTCAT	1.13
CGGCAGAAGT	1.04
ATTAGAGTT	0.957
TAGAAGCCTT	1.01
TTGAACGTA	1.08
TCAATTGTCG	0.958
CATACATGTA	0.993
AGCAAAAGGC	1.05
TATTATTAT	1.05
GTGGTGCCAG	0.999
AAAAAAGCTC	0.994
